Article PMC10460860
Results are given in words; binding and its absence hold for the method and conditions named. Binding seen in cells or lysates may run through a third protein. Some entries that bind do so weakly or less than the wild type. For part of these data: Tags and fused reporters may be left off the sequences shown.

Sequences of proteins named here, by UniProt entry; tags and fusion partners are left off.
UniProt P34152: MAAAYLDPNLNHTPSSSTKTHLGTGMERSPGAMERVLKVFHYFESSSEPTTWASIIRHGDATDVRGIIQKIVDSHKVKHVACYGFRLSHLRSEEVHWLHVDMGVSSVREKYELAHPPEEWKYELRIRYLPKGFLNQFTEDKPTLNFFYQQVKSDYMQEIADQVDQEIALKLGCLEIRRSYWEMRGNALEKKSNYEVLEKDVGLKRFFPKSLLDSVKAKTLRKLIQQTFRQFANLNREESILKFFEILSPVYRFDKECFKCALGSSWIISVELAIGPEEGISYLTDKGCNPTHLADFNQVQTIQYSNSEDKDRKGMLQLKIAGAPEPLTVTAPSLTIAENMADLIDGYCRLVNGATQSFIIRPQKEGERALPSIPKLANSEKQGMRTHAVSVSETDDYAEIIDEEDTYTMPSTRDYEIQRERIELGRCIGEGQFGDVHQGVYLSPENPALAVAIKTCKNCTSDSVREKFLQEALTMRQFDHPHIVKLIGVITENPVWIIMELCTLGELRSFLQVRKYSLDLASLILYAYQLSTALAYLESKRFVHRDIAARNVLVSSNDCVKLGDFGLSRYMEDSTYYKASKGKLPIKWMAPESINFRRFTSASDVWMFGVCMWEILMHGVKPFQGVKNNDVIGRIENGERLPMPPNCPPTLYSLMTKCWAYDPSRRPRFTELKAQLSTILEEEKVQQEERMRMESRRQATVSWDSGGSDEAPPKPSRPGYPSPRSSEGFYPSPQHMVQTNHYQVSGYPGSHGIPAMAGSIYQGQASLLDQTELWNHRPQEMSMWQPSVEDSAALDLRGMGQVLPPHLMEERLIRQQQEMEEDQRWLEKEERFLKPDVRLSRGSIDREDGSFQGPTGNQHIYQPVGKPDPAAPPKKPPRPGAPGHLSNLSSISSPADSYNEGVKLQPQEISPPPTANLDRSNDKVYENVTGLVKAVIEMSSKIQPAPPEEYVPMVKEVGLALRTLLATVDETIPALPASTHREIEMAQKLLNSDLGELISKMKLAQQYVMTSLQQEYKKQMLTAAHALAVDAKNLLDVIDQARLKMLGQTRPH

T1: endogenous FBLN7 (fibulin 7) of cardiac fibroblasts (mouse (endogenous in neonatal mouse cardiac fibroblasts)) (UniProt Q501P1)
T1 sequence: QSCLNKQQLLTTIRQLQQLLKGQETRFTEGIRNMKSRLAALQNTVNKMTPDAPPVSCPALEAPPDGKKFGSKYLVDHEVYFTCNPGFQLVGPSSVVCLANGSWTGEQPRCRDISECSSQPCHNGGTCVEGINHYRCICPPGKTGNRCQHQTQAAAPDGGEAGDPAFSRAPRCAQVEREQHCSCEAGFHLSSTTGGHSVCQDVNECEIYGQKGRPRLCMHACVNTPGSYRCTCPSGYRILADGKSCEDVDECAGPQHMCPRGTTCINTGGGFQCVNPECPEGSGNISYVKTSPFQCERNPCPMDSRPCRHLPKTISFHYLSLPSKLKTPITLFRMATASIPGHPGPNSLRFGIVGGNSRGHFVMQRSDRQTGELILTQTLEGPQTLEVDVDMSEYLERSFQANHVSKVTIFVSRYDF

T2: green fluorescent protein (GFP)-tagged FBLN7 (fibulin 7), full length, mouse (mouse) (UniProt Q501P1)
T2 sequence: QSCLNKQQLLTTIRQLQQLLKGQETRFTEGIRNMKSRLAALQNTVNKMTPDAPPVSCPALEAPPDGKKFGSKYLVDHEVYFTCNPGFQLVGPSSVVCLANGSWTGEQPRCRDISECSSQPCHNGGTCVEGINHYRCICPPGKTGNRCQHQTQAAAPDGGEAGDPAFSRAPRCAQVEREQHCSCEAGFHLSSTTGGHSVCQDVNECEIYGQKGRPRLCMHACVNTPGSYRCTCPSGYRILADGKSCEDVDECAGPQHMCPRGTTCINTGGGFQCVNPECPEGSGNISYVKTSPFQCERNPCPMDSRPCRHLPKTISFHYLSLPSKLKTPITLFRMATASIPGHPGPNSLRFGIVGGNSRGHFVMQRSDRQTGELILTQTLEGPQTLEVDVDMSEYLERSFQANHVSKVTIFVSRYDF


Key:
[1] = target: T1, endogenous FBLN7 (fibulin 7) of cardiac fibroblasts (mouse (endogenous in neonatal mouse cardiac fibroblasts)); experiment: co-IP; endogenous FBLN7 and FAK in lysates from cardiac fibroblasts stimulated with hTGF-β1 (Figure S5)
[2] = target: T2, green fluorescent protein (GFP)-tagged FBLN7 (fibulin 7), full length, mouse (mouse); experiment: co-IP; His-EGFR and GFP-FBLN7 co-expressed in 293T cells; non-denaturing lysis buffer; IP antibody then protein A/G magnetic beads at 4°C overnight; IP with GFP-FBLN7 and blot for His-EGFR, and the reverse
[3] = target: His-tagged EGFR (epidermal growth factor receptor), full length, mouse (mouse) (UniProt Q01279); experiment: as above
[4] = target: endogenous EGFR of cardiac fibroblasts (mouse (endogenous in neonatal mouse cardiac fibroblasts)) (UniProt Q01279); experiment: co-IP; endogenous proteins in hTGF-β1-treated cardiac fibroblasts; IP with EGFR and blot for FBLN7
[5] = target: His-tagged EGFR (epidermal growth factor receptor), full length, mouse (mouse) (UniProt Q01279); experiment: co-IP; His-EGFR with Myc-FBLN7 full length or deletion mutants in 293T cells; Western blotting of the immunoprecipitated fraction of the full-length His-EGFR

Molecule	binding [5]	further results
focal adhesion kinase (FAK), endogenous in cardiac fibroblasts (from UniProt P34152 1-1052) (enzyme)		binding [1]: no binding
His-tagged EGFR (epidermal growth factor receptor), full length, mouse (from UniProt Q01279 25-1210)		binding [2]: binds
green fluorescent protein (GFP)-tagged FBLN7 (fibulin 7), full length, mouse (protein, UniProt Q501P1 25-440) QSCLNKQQLLTTIRQLQQLLKGQETRFTEGIRNMKSRLAALQNTVNKMTPDAPPVSCPALEAPPDGKKFGSKYLVDHEVYFTCNPGFQLVGPSSVVCLANGSWTGEQPRCRDISECSSQPCHNGGTCVEGINHYRCICPPGKTGNRCQHQTQAAAPDGGEAGDPAFSRAPRCAQVEREQHCSCEAGFHLSSTTGGHSVCQDVNECEIYGQKGRPRLCMHACVNTPGSYRCTCPSGYRILADGKSCEDVDECAGPQHMCPRGTTCINTGGGFQCVNPECPEGSGNISYVKTSPFQCERNPCPMDSRPCRHLPKTISFHYLSLPSKLKTPITLFRMATASIPGHPGPNSLRFGIVGGNSRGHFVMQRSDRQTGELILTQTLEGPQTLEVDVDMSEYLERSFQANHVSKVTIFVSRYDF		binding [3]: binds
endogenous FBLN7 (fibulin 7) of cardiac fibroblasts (protein, UniProt Q501P1 25-440) QSCLNKQQLLTTIRQLQQLLKGQETRFTEGIRNMKSRLAALQNTVNKMTPDAPPVSCPALEAPPDGKKFGSKYLVDHEVYFTCNPGFQLVGPSSVVCLANGSWTGEQPRCRDISECSSQPCHNGGTCVEGINHYRCICPPGKTGNRCQHQTQAAAPDGGEAGDPAFSRAPRCAQVEREQHCSCEAGFHLSSTTGGHSVCQDVNECEIYGQKGRPRLCMHACVNTPGSYRCTCPSGYRILADGKSCEDVDECAGPQHMCPRGTTCINTGGGFQCVNPECPEGSGNISYVKTSPFQCERNPCPMDSRPCRHLPKTISFHYLSLPSKLKTPITLFRMATASIPGHPGPNSLRFGIVGGNSRGHFVMQRSDRQTGELILTQTLEGPQTLEVDVDMSEYLERSFQANHVSKVTIFVSRYDF		binding [4]: binds
Myc-tagged FBLN7 mutant lacking the sushi domain (domain or fragment, UniProt Q501P1) QSCLNKQQLLTTIRQLQQLLKGQETRFTEGIRNMKSRLAALQNTVNKMQPCHNGGTCVEGINHYRCICPPGKTGNRCQHQTQAAAPDGGEAGDPAFSRAPRCAQVEREQHCSCEAGFHLSSTTGGHSVCQDVNECEIYGQKGRPRLCMHACVNTPGSYRCTCPSGYRILADGKSCEDVDECAGPQHMCPRGTTCINTGGGFQCVNPECPEGSGNISYVKTSPFQCERNPCPMDSRPCRHLPKTISFHYLSLPSKLKTPITLFRMATASIPGHPGPNSLRFGIVGGNSRGHFVMQRSDRQTGELILTQTLEGPQTLEVDVDMSEYLERSFQANHVSKVTIFVSRYDF	binds	
Myc-tagged FBLN7 mutant lacking the EGF-like domain (domain or fragment, UniProt Q501P1) QSCLNKQQLLTTIRQLQQLLKGQETRFTEGIRNMKSRLAALQNTVNKMTPDAPPVSCPALEAPPDGKKFGSKYLVDHEVYFTCNPGFQLVGPSSVVCLANGSWTGEQPRCRHQTQAAAPDGGEAGDPAFSRAPRCAQVEREQHCSCEAGFHLSSTTGGHSVCQDVNECEIYGQKGRPRLCMHACVNTPGSYRCTCPSGYRILADGKSCEDVDECAGPQHMCPRGTTCINTGGGFQCVNPECPEGSGNISYVKTSPFQCERNPCPMDSRPCRHLPKTISFHYLSLPSKLKTPITLFRMATASIPGHPGPNSLRFGIVGGNSRGHFVMQRSDRQTGELILTQTLEGPQTLEVDVDMSEYLERSFQANHVSKVTIFVSRYDF	no binding	
Myc-tagged FBLN7 mutant lacking the EGF-like calcium-binding domain (domain or fragment, UniProt Q501P1) QSCLNKQQLLTTIRQLQQLLKGQETRFTEGIRNMKSRLAALQNTVNKMTPDAPPVSCPALEAPPDGKKFGSKYLVDHEVYFTCNPGFQLVGPSSVVCLANGSWTGEQPRCRDISECSSQPCHNGGTCVEGINHYRCICPPGKTGNRCQHQTQAAAPDGGEAGDPAFSRAPRCAQVEREQHCSCEAGFHLSSTTGGHSVCRNPCPMDSRPCRHLPKTISFHYLSLPSKLKTPITLFRMATASIPGHPGPNSLRFGIVGGNSRGHFVMQRSDRQTGELILTQTLEGPQTLEVDVDMSEYLERSFQANHVSKVTIFVSRYDF	no binding	

Continued, in another order:

binding [5]	Molecule	further results
binds	Myc-tagged full-length FBLN7 (protein, UniProt Q501P1 25-440) QSCLNKQQLLTTIRQLQQLLKGQETRFTEGIRNMKSRLAALQNTVNKMTPDAPPVSCPALEAPPDGKKFGSKYLVDHEVYFTCNPGFQLVGPSSVVCLANGSWTGEQPRCRDISECSSQPCHNGGTCVEGINHYRCICPPGKTGNRCQHQTQAAAPDGGEAGDPAFSRAPRCAQVEREQHCSCEAGFHLSSTTGGHSVCQDVNECEIYGQKGRPRLCMHACVNTPGSYRCTCPSGYRILADGKSCEDVDECAGPQHMCPRGTTCINTGGGFQCVNPECPEGSGNISYVKTSPFQCERNPCPMDSRPCRHLPKTISFHYLSLPSKLKTPITLFRMATASIPGHPGPNSLRFGIVGGNSRGHFVMQRSDRQTGELILTQTLEGPQTLEVDVDMSEYLERSFQANHVSKVTIFVSRYDF	
binds	Myc-tagged FBLN7 mutant lacking the C-terminus (domain or fragment, UniProt Q501P1 25-373) QSCLNKQQLLTTIRQLQQLLKGQETRFTEGIRNMKSRLAALQNTVNKMTPDAPPVSCPALEAPPDGKKFGSKYLVDHEVYFTCNPGFQLVGPSSVVCLANGSWTGEQPRCRDISECSSQPCHNGGTCVEGINHYRCICPPGKTGNRCQHQTQAAAPDGGEAGDPAFSRAPRCAQVEREQHCSCEAGFHLSSTTGGHSVCQDVNECEIYGQKGRPRLCMHACVNTPGSYRCTCPSGYRILADGKSCEDVDECAGPQHMCPRGTTCINTGGGFQCVNPECPEGSGNISYVKTSPFQCERNPCPMDSRPCRHLPKTISFHYLSLPSKLKTPITLFRMATASIPGHPGPNSLR	
